# Reference: the supplement of paper PMC11417369
# ± gives the standard deviation of the averaged measurements. Some of the results follow.
# Test system: PfAP2-I AP2 domain 3 (GST-tagged)
# Assay: gcPBM binding intensity (ln(normalized median fluorescence intensity)); higher = stronger DNA binding
# Procedure, shortened: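 Binding of GST-tagged P. falciparum DNA-binding domains, expressed in E. coli and used at about 25 μg on average, was carried out for 1 h in 1× PBS containing 1% milk, 0.2 mg/ml BSA, 0.5% salmon testes DNA and 0.03% Triton X-100. The target was an Agilent 4 × 180k array of primer-extended double-stranded 36-bp intergenic genomic probes plus negative controls, read with Alexa488 anti-GST antibody at 488 nm. Binding intensity is the highest Masliner-normalised natural-log median intensity across replicate spots of either probe orientation.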
row,Sequence,gcPBM binding intensity (ln)
1,ATGTGCACATATAAAAGTACACGCACATATATATAT [XGTACX_site1238],9.88 ± 0.23
2,TGCACAAAGTTATGCACACACCTAAAATTAATTTTT [CACACA_site7385],9.67 ± 0.13
3,TATACACATATATACACACACATATATAAATAAATA [CACACA_site7579],7.77 ± 0.37
4,ATTCTTTATATGCATACACACCTAATATAGGGACCT [CACACA_site6830],8.39 ± 0.72
5,GTACATAGGTATAGCACACACAAATGTAGGTATTTT [CACACA_site4049],8.56 ± 0.41
6,TTATAATATGTATACACACACATATATAGATATATA [CACACA_site7159],7.85 ± 0.42
7,GTTCAAATTATTATGTGTACTAAAGAATATTTTAAA [XGTACX_site3166],7.81 ± 0.27
8,TCTATTTTTTATATGGTGCATTGTTCTTATTAATAT [GTGCAC_site9392],10.8 ± 0.71
9,CTTTATTTTTTATACACACACAATATGTATTTATAT [CACACA_site5879],8.1 ± 0.52
10,AGGAAAAATAATTATTCACACAATAAATATATTTGA [CACACA_site5824],7.6 ± 0.44
11,AATTAATTTATGTTACGTACATAAGTATTATATTTT [XGTACX_site388],7.92 ± 0.23
12,GTAAAACAGATTTACAGTACACATGTGTTATGTTTT [XGTACX_site2933],7.76 ± 0.53
13,TTTATATATAAATAATGTACAAAAAATTTTAAAAAG [XGTACX_site7990],7.98 ± 0.58
14,ATAAAAATATTTGAATGTACTTATAAGATATATATA [XGTACX_site4257],7.82 ± 0.46
15,TTTTTATATTTTATTATTTTTTTTATATAAAAAATT [CACACA_negctrl_site601],7.83 ± 0.61
16,AAATCGTGCACGGACACATGCAGTAGCCGAGAATTA [TGCATGCA_site733],10.1 ± 0.12
17,TGTTTATTTATTTGTGTGCACTCAGATTATATTATA [GTGCAC_site9510],10.5 ± 0.42
18,GATGTATTCATACATGCACACGTACATATTTAAATA [CACACA_site9299],8.47 ± 0.37
19,TATTTTAATTTTTGTTGTACGCAAATGTGAGGGCAT [XGTACX_site4663],8.02 ± 0.45
20,TAAACCAAAAAAAGTAGTACAAATATTATAAAAAAA [XGTACX_site8497],7.88 ± 0.49
21,AGGTAGAAAAAAGACACACACATTAGATATTTATAT [CACACA_site6313],7.75 ± 0.7
22,GTTCATAAATTAAACACACACACACGGCTGGATACC [CACACA_site7545],8.47 ± 0.3
23,TATACGTATTACAGAGTGCAATAAACAGTATATATT,10.9 ± 0.66

row,Sequence,gcPBM binding intensity (ln)
1,TATATATGTGTATAGAGTACACGTTTTTTTTAATAT [XGTACX_site3128],7.71 ± 0.38
2,AAAAACCTGAACTGTGCATGTCATACTTTTACTTTT [TGCATGCA_site73],8.42 ± 0.98
3,TGTATAAACTTTACGTGTACATGAATAATCTATAAT [XGTACX_site3801],7.93 ± 0.3
4,TAAATACATCTATGCACACAAAAAAATATATATTTT [CACACA_site5027],8.77 ± 0.12
5,TTTATAAATTCTCTTTTTAAAAAATATTTTTATACT [CACACA_negctrl_site427],7.6 ± 0.54
6,TAATCATTTTAGCTTACACACAAAATTTTGTTATAA [CACACA_site2939],7.66 ± 0.62
7,AAAATGGAACTAGGAATAATATAAGAAGATAAAAGG [XGTACX_negctrl_site347],7.91 ± 0.81
8,TTGTACAAAAATAATGCACACTATATCAAGTTTTTT [CACACA_site5898],10.9 ± 0.7
9,ATTATTACACAACGTTGTACATTTCAATATTTTTAT [XGTACX_site5096],8.39 ± 0.34
10,AAAATAATATATAATTGTACTTTTTTTTTATATATA [XGTACX_site6093],7.96 ± 0.18
11,TTTCTTTTTTTTTAATGTACTTTTTTTATAAAAGGT [XGTACX_site5688],7.99 ± 0.23
12,TTTTTTCTTAAAATTTGTACATAGTGCAATTTTTTT [XGTACX_site5509],9.5 ± 0.69
13,TCCTCTTCAATATATATATATTATAAATAAATAAAT [CACACA_negctrl_site1756],8.03 ± 0.21
14,TGTACATATATATATATAATAATAGTTATGTTTATT [CACACA_negctrl_site1474],7.64 ± 0.41
15,TTTTTTTATAGCTAAACACACATAAGAATATATGTT [CACACA_site1099],7.67 ± 0.52
16,ACATACTTTAATATATGTACATAAGAAAAAAAAAAA [XGTACX_site2991],8.01 ± 0.59
17,AATATAAATTAATTTACACACTAAAAAATATTTATA [CACACA_site7728],7.75 ± 0.49
18,TATTTTTTATATTTATTTATTTAAAGGAGCTTTTCT [GTGCAC_negctrl_site293],7.38 ± 0.43
19,TATAAGAATGACAAGTGTACATATCAAATATATTAG [XGTACX_site7113],7.77 ± 0.38
20,TATACTAAAAAATACACATGCACATACAATATATAT [TGCATGCA_site1016],8.15 ± 0.82
21,AAATTTATATAATATTGTACATTAAAAATTATATAT [XGTACX_site8009],7.73 ± 0.3
22,TGGGTAATACATAATACACACATGTATATGTCGCAT [CACACA_site1125],7.78 ± 0.47
23,AGTATATATACACAAGGGGAATACATATACAAAATT [TGCATGCA_negctrl_site244],7.85 ± 0.61

row,Sequence,gcPBM binding intensity (ln)
1,TATGTATAAATATATGCACACATATATATATTTATA [CACACA_site9150],8.85 ± 0.26
2,AAGTTGTATATTGATTGTACTTGTTTAGGGTTATAG [XGTACX_site2953],7.7 ± 0.45
3,ATATATATAATAAACACACACATATACATATATGTA [CACACA_site3462],8.26 ± 0.47
4,TATATATATATAATGTGTACACAAATATATATTATA [XGTACX_site8786],9.2 ± 0.26
5,AGGTAAAATATACATTGTACATATAATTAATTTATT [XGTACX_site626],7.58 ± 0.45
6,TATTAACACTTTATAGAAACAAAAAAATAAGCAAAA [XGTACX_negctrl_site295],7.76 ± 0.71
7,TTTGAATTTTTTAACACACACATGTGTGGATATATA [CACACA_site6872],7.92 ± 0.42
8,ATAAATCATAAGGAGAGTACATAAATAAAATAATCA [XGTACX_site8825],7.7 ± 0.59
9,CTCAATATATTTGATTTACACACTTACAATGTATAT [CACACA_site8982],7.95 ± 0.54
10,AAGTGGCATATAAGTAAAAAATATATACAAGTATAT [GTGCAC_negctrl_site427],8.29 ± 0.057
11,TATTAAAGATACTCGGTATAAATAAATTTTAATGTG [XGTACX_negctrl_site239],7.67 ± 0.4
12,TATAAAAAATATAATTGTACATAAAGGTTAAAATGT [XGTACX_site6138],8.16 ± 0.52
13,TTATTTCTACCTTTTTGTACACATTATTATGAAACC [XGTACX_site5325],8.54 ± 0.35
14,ACAACATGCACACGCACACACAAAAAAAGCATGCAT [CACACA_site6185],8.84 ± 0.13
15,ATGCTTATTATTTATTGTACTGAATAAATATATCTG [XGTACX_site4483],7.79 ± 0.46
16,AAACAAAAAAGAAACACACACTAATTAAATTTTCTT [CACACA_site4746],7.42 ± 0.65
17,TACAATACCGTACAGGTGCAACTAGCCAAAAAAAAG,9.54 ± 0.29
18,TAAATTAATAAAAAGTGTACATAATATACATATATA [XGTACX_site8604],7.86 ± 0.4
19,TTTAATAATATTTAGGTGCTATATATTATATGTATA,9.72 ± 0.59
20,ATAATTAAAAAAGGAATATATATATATATATATATA [GTGCAC_negctrl_site343],9.38 ± 0.52
21,CGTATGACATAATATTGTACTTTTGATATACATCAT [XGTACX_site7366],7.68 ± 0.44
22,TTTATTTTGTAGTGTACACATATATATATATATATA [CACACA_site5843],9.55 ± 0.59
23,TATATTTTTTTTCTAGTGCATATTATTAATTAAGTT,9.895 ± 0.021

row,Sequence,gcPBM binding intensity (ln)
1,TGAGTATTTTTTTAATGTACTTATATTAAAAGGAAA [XGTACX_site6286],7.84 ± 0.14
2,AAAATATTATTTTGTTGTACATATAAAATTTTAAGC [XGTACX_site1866],7.98 ± 0.35
3,TACAAAATAAGACATGCATGTTATACATATATATTT [TGCATGCA_site321],7.58 ± 0.8
4,TATGTCAAAAAATAATGTACAAAAAAATTAACATAA [XGTACX_site5463],7.55 ± 0.45
5,ATATAAAATAGACACGCACACAAAAAAAAAAAAAAA [CACACA_site3522],8.23 ± 0.61
6,CTATAATATAGGTATACACACATATTATAGAATATT [CACACA_site7696],7.5 ± 0.42
7,TATATATGGAAAAGGTGTACATTCAATATATATATA [XGTACX_site3167],9.02 ± 0.014
8,GTTGTATACAATAATGTGCACATATTAATTTGAACT,9.9 ± 0.11
9,AAATGTACAGGACGCACACACATATTTATATTTATA [CACACA_site7689],8.07 ± 0.29
10,TATATATATATAATTGCACACATCAAGTTTGATGTT [CACACA_site1288],9.62 ± 0.26
11,TTTTTTTTTCCTTTTTTTTAAATATTAAAAATGGGA [TGCATGCA_negctrl_site494],7.63 ± 0.53
12,TAAATATATATATATAGTACAATATAATTATGATAT [XGTACX_site258],7.79 ± 0.36
13,CTTATTTACTATTTTTCACACATTACAGATAAACAA [CACACA_site6095],8.16 ± 0.35
14,TAAGTTTTGTTTTTTTGTACTCATTCATACTATCAT [XGTACX_site3638],7.96 ± 0.55
15,TCATTGAAAAAAATCTGTACTGACTATATAGTTGCA [XGTACX_site1566],7.41 ± 0.45
16,TATAATATATGTATATGTACTTATGTTGAGAAACAT [XGTACX_site2117],7.72 ± 0.59
17,GTTATATAAACATATGCATGTGAAGTGTTTATTAAT [TGCATGCA_site183],8.13 ± 0.79
18,TACCTAATATGTTATACACACATTATGAGTACATAT [CACACA_site2466],7.88 ± 0.3
19,GAATAATATATATGTTCACACATGGTCTTTATTATA [CACACA_site5457],8.2 ± 0.56
20,ATATATTTTCATTTTACACACAAATAAAGATAATTT [CACACA_site2996],7.97 ± 0.43
